Reference: the GPR68 mutational scans of Howard et al. (2025)
The least precise scores are not listed. Two further conditions of the source, in which the scores hardly spread, are not listed. Read del as a deletion of the residues named and ins as an insertion between two positions. For part of these data: The concentration of ogerin is not given here.

B1: GPR68, Q15743 (parent)
chain: MGNITADNSSMSCTIDHTIHQTLAPVVYVTVLVVGFPANCLSLYFGYLQIKARNELGVYLCNLTVADLFYICSLPFWLQYVLQHDNWSHGDLSCQVCGILLYENIYISVGFLCCISVDRYLAVAHPFRFHQFRTLKAAVGVSVVIWAKELLTSIYFLMHEEVIEDENQHRVCFEHYPIQAWQRAINYYRFLVGFLFPICLLLASYQGILRAVRRSHGTQKSRKDQIQRLVLSTVVIFLACFLPYHVLLLVRSVWEASCDFAKGVFNAYHFSLLLTSFNCVADPVLYCFVSETTHRDLARLRGACLAFLTCSRTGRAREAYPLGAPEASGKSGAQGEEPELLTKLHPAFQTPNSPGSGGFPTGRLA

How the values were obtained:
[1] = variants of: B1; assay: cAMP reporter score (Enrich2 score, wild type = 0); higher = more signal; HEK293T, FACS bins; conditions: modulator: ogerin
[2] = variants of: B1; assay: surface expression score (Enrich2 score, wild type = 0); higher = more signal; HEK293T, FACS bins

Variant | cAMP reporter score ([1]; pH 6) | surface expression score [2] | cAMP reporter score ([1]; pH 6.5)
MGNITADNSSMSCTIDHTIHQTLAPVVYVTVLVVGFPANCLSLYFGYLQIKARNELGVYLCNLTVADLFYICSLPFWLQYVLQHDNWSHGDLSCQVCGILLYENIYISVGFLCCISVDRYLAVAHPFRFHQFRTLKAAVGVSVVIWAKELLTSIYFLMHEEVIEDENQHRVCFEHYPIQAWQRAINYYRFLVGFLFPSCLLLASYQGILRAVRRSHGTQKSRKDQIQRLVLSTVVIFLACFLPYHVLLLVRSVWEASCDFAKGVFNAYHFSLLLTSFNCVADPVLYCFVSETTHRDLARLRGACLAFLTCSRTGRAREAYPLGAPEASGKSGAQGEEPELLTKLHPAFQTPNSPGSGGFPTGRLA [I198S] | 1.69 | -0.896 | 
MGNITADNSSMSCTIDHTIHQTLAPVVYVTVLVVGFPANCLSLYFGYLQIKARNELGVYLCNLTVADLFYICSLPFWLQYVLQHDNWSHGDLSCQVCGILLYENIYISVGFLCCISVDRYLAVAHPFRFHQFRTLKAAVGVSVVIWAKELLTSIYFLMHEEVIEDENQHRVCFEHYPIQAWQRAINYYRFLVGFLFPTCLLLASYQGILRAVRRSHGTQKSRKDQIQRLVLSTVVIFLACFLPYHVLLLVRSVWEASCDFAKGVFNAYHFSLLLTSFNCVADPVLYCFVSETTHRDLARLRGACLAFLTCSRTGRAREAYPLGAPEASGKSGAQGEEPELLTKLHPAFQTPNSPGSGGFPTGRLA [I198T] | -0.278 |  | 3.39
I198_C199del | -1.05 | -1.19 | -1.42
MGNITADNSSMSCTIDHTIHQTLAPVVYVTVLVVGFPANCLSLYFGYLQIKARNELGVYLCNLTVADLFYICSLPFWLQYVLQHDNWSHGDLSCQVCGILLYENIYISVGFLCCISVDRYLAVAHPFRFHQFRTLKAAVGVSVVIWAKELLTSIYFLMHEEVIEDENQHRVCFEHYPIQAWQRAINYYRFLVGFLFPICCLLASYQGILRAVRRSHGTQKSRKDQIQRLVLSTVVIFLACFLPYHVLLLVRSVWEASCDFAKGVFNAYHFSLLLTSFNCVADPVLYCFVSETTHRDLARLRGACLAFLTCSRTGRAREAYPLGAPEASGKSGAQGEEPELLTKLHPAFQTPNSPGSGGFPTGRLA [L200C] | -0.831 |  | 0.33
MGNITADNSSMSCTIDHTIHQTLAPVVYVTVLVVGFPANCLSLYFGYLQIKARNELGVYLCNLTVADLFYICSLPFWLQYVLQHDNWSHGDLSCQVCGILLYENIYISVGFLCCISVDRYLAVAHPFRFHQFRTLKAAVGVSVVIWAKELLTSIYFLMHEEVIEDENQHRVCFEHYPIQAWQRAINYYRFLVGFLFPICNLLASYQGILRAVRRSHGTQKSRKDQIQRLVLSTVVIFLACFLPYHVLLLVRSVWEASCDFAKGVFNAYHFSLLLTSFNCVADPVLYCFVSETTHRDLARLRGACLAFLTCSRTGRAREAYPLGAPEASGKSGAQGEEPELLTKLHPAFQTPNSPGSGGFPTGRLA [L200N] | -4.08 | -0.44 | -0.443
MGNITADNSSMSCTIDHTIHQTLAPVVYVTVLVVGFPANCLSLYFGYLQIKARNELGVYLCNLTVADLFYICSLPFWLQYVLQHDNWSHGDLSCQVCGILLYENIYISVGFLCCISVDRYLAVAHPFRFHQFRTLKAAVGVSVVIWAKELLTSIYFLMHEEVIEDENQHRVCFEHYPIQAWQRAINYYRFLVGFLFPICLLLASYLGILRAVRRSHGTQKSRKDQIQRLVLSTVVIFLACFLPYHVLLLVRSVWEASCDFAKGVFNAYHFSLLLTSFNCVADPVLYCFVSETTHRDLARLRGACLAFLTCSRTGRAREAYPLGAPEASGKSGAQGEEPELLTKLHPAFQTPNSPGSGGFPTGRLA [Q206L] | -0.005 | 0.597 | 
MGNITADNSSMSCTIDHTIHQTLAPVVYVTVLVVGFPANCLSLYFGYLQIKARNELGVYLCNLTVADLFYICSLPFWLQYVLQHDNWSHGDLSCQVCGILLYENIYISVGFLCCISVDRYLAVAHPFRFHQFRTLKAAVGVSVVIWAKELLTSIYFLMHEEVIEDENQHRVCFEHYPIQAWQRAINYYRFLVGFLFPICLLLASYQGILRAVRRSHGTQKSRKKQIQRLVLSTVVIFLACFLPYHVLLLVRSVWEASCDFAKGVFNAYHFSLLLTSFNCVADPVLYCFVSETTHRDLARLRGACLAFLTCSRTGRAREAYPLGAPEASGKSGAQGEEPELLTKLHPAFQTPNSPGSGGFPTGRLA [D224K] | 0.991 | 2.85 | 1.97
MGNITADNSSMSCTIDHTIHQTLAPVVYVTVLVVGFPANCLSLYFGYLQIKARNELGVYLCNLTVADLFYICSLPFWLQYVLQHDNWSHGDLSCQVCGILLYENIYISVGFLCCISVDRYLAVAHPFRFHQFRTLKAAVGVSVVIWAKELLTSIYFLMHEEVIEDENQHRVCFEHYPIQAWQRAINYYRFLVGFLFPICLLLASYQGILRAVRRSHGTQKSRKDQIQRLVNSTVVIFLACFLPYHVLLLVRSVWEASCDFAKGVFNAYHFSLLLTSFNCVADPVLYCFVSETTHRDLARLRGACLAFLTCSRTGRAREAYPLGAPEASGKSGAQGEEPELLTKLHPAFQTPNSPGSGGFPTGRLA [L231N] | 0.036 |  | 
L231_S232insG | -1.28 |  | -1.49
MGNITADNSSMSCTIDHTIHQTLAPVVYVTVLVVGFPANCLSLYFGYLQIKARNELGVYLCNLTVADLFYICSLPFWLQYVLQHDNWSHGDLSCQVCGILLYENIYISVGFLCCISVDRYLAVAHPFRFHQFRTLKAAVGVSVVIWAKELLTSIYFLMHEEVIEDENQHRVCFEHYPIQAWQRAINYYRFLVGFLFPICLLLASYQGILRAVRRSHGTQKSRKDQIQRLVLSTVVAFLACFLPYHVLLLVRSVWEASCDFAKGVFNAYHFSLLLTSFNCVADPVLYCFVSETTHRDLARLRGACLAFLTCSRTGRAREAYPLGAPEASGKSGAQGEEPELLTKLHPAFQTPNSPGSGGFPTGRLA [I236A] | -0.651 |  | 
